Measurements as given in the RNAGym collection of RNA variant scans (doi:10.1093/nar/gkz1192).
Read counts are not given, so values of variants with three or more changes are uncertain.

B1: CPEB3 Ribozyme (parent)
chain: UAACAGGGGGCCACAGCAGAAGCGUUCACGUCGCAGCCCCUGUCAGAUUCUGGUGAAUCUGCGAAUUCUGCUGUAUAUCUC

Variants of: B1
Experiment: self-cleavage, relative activity (ratio to wild type); higher = more cleavage; in vitro, sequencing
Summary of the method: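 CPEB3 self-cleaving ribozyme mutant libraries were made by rounds of error-prone PCR, barcoded, and transcribed in vitro with T7 RNA polymerase for 5 hours at 37°C. Cleavage occurred during transcription and a 15 min DNase I step before EDTA stop. RNAs were reverse transcribed with template switching and Illumina-sequenced, with DNA sequencing mapping barcodes to variants. Relative activity is the variant's cleaved/total read fraction divided by wild type's (minimum 5 reads), averaged across three batches.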
With A18U C40A U48C U51C the self-cleavage was 0.08. In the case of A18U A56U A57G, the self-cleavage is reported as 0.18. For A18U C23U A28U U43C U76C U78C, the self-cleavage was 0.06. A18U U26A A35G U41G U49C U78A gave a self-cleavage of 0.03. A18U A20G U41A G63U C71A U72C gave a self-cleavage of 0.07. For A18U G19A U43C A45G A57G U58C, the self-cleavage was 0.15. A18U U31C U49C U72G gave a self-cleavage of 0.11. A18U C32A U49C U72C gave a self-cleavage of 0.18. In the case of A18U A35G U54G, the self-cleavage is reported as 0.78. Work on A18U A28U U54C yielded a self-cleavage of 0.24. Work on A18U U31C U49C yielded a self-cleavage of 0.05. With A18U A21G G33C U43A A45U A77U the self-cleavage was 0.03. In the case of A18U U25C U51A, the self-cleavage is reported as 0.31. With A18U U43C U72C the self-cleavage was 0.19. For A18U A20G A56G U76C, the self-cleavage was 0.44. A18U U25C G33A U60C gave a self-cleavage of 0.11. With A18G U74A U76A the self-cleavage was 1.24. For A18U U25C C38G C59A, the self-cleavage was 0.04. A18U C34G U51A U69G gave a self-cleavage of 0.07. In the case of A18U A21G U72C U80C, the self-cleavage is reported as 0.35. Work on A18U U25C U49C yielded a self-cleavage of 0.08. In the case of A18U A28G A64U, the self-cleavage is reported as 0.1. A18U C39U A45G C50A gave a self-cleavage of 0.16. Variant A18U A20U U31C U43C C71G U80A has a self-cleavage of 0.05. With A18U U25C U26C the self-cleavage was 0.29. Work on A18U U25C U31A U41G U54C U66C C68A yielded a self-cleavage of 0.18. Work on A18U A35U U41C yielded a self-cleavage of 0.16. A18U A35G A56G U72C A77G showed a self-cleavage of 0.47. With A18U A20U C29A C38A A64G U78A the self-cleavage was 0.04. For A18U A20G C34U A47G U48C U51C, the self-cleavage was 0.19. A18U U26A U41C A56U gave a self-cleavage of 0.2. Work on A18U U25C C29U U54A yielded a self-cleavage of 0.22. Variant A18U U51A A65G has a self-cleavage of 0.27. With A18U G19U U54C A64G U66G the self-cleavage was 0.07. A18U U31A A45G U48C gave a self-cleavage of 0.14. Variant A18U C37G A47G U48A U69C A75G has a self-cleavage of 0.06. With A18U U26C A45G G52A U69A C71A A77G the self-cleavage was 0.13. Variant A18U C39U U41A A57U U67C has a self-cleavage of 0.04. In the case of A18U A20U A47G U72C U78G, the self-cleavage is reported as 0.1. A18U U48C U54C showed a self-cleavage of 0.21. In the case of A18U A28G G61C U69C, the self-cleavage is reported as 0.13. Variant A18U A20C U31C A35U A64U U72G U80C has a self-cleavage of 0.02. Work on A18U C34A A56U U74A yielded a self-cleavage of 0.23. Variant A18U A35G U58C U72C has a self-cleavage of 0.47. For A18U U25C U69C U80C, the self-cleavage was 0.07. For A18U A21G A47G U60C, the self-cleavage was 0.34. With A18U A20U U67C the self-cleavage was 0.11. With A18U G19A G33U G53A U69C U78A the self-cleavage was 0.15. A18U A35G U74G showed a self-cleavage of 1.03. A18U A20U U43C gave a self-cleavage of 0.2. For A18U A20U U69C, the self-cleavage was 0.18. Variant A18U U26C U41C U66C has a self-cleavage of 0.07. A18U U51G G63A showed a self-cleavage of 0.43. Work on A18U C29U G33A yielded a self-cleavage of 0.15. In the case of A18U A28G U31C U49C, the self-cleavage is reported as 0.1. With A18U U26C A57G G73U the self-cleavage was 0.11. A18U A35U U48C gave a self-cleavage of 0.06. Variant A18U G63U A77U has a self-cleavage of 0.53. A18U A45U U51C A64G showed a self-cleavage of 0.04. Work on A18U U43C U69A A75G yielded a self-cleavage of 0.43. A18U A45G A65G U76C showed a self-cleavage of 0.43. In the case of A18U U31C U51C U67C U72G, the self-cleavage is reported as 0.12. In the case of A18U C37U U48C U72A U76C, the self-cleavage is reported as 0.12. For A18U U26G A57U, the self-cleavage was 0.17. A18U A20U A28G U48C gave a self-cleavage of 0.21. With A18U C32U U43C A57G U67A U72C the self-cleavage was 0.08. A18U U26C U31A U60A gave a self-cleavage of 0.16. For A18U A28U U60C U67C, the self-cleavage was 0.21. A18U U25A A35G U43C U51C U80C gave a self-cleavage of 0.04. In the case of A18U A20G U26A, the self-cleavage is reported as 0.52. Variant A18U A77G U78C has a self-cleavage of 0.26. In the case of A18U G33A U60C U69C, the self-cleavage is reported as 0.12. In the case of A18U A20G A64G, the self-cleavage is reported as 0.2. A18U A21G U31C A35G A75G U78C showed a self-cleavage of 0.2. With A18U A35G U69C U76G the self-cleavage was 1.1. A18U U25C C29U gave a self-cleavage of 0.12. In the case of A18U A21G G36A A57U, the self-cleavage is reported as 0.17. With A18U U25C A28G the self-cleavage was 0.26. In the case of A18U A28G A35G U41A U60C, the self-cleavage is reported as 0.11. In the case of A18G U69A U78C, the self-cleavage is reported as 0.46. For A18U C38G U41C U43A A45G U60C, the self-cleavage was 0.15. In the case of A18U A20U C29U U72C, the self-cleavage is reported as 0.08. With A18U A21U U43A A65U U67C U72A the self-cleavage was 0.01.
